According to the GPR68 mutational scans of Howard et al. (2025):
The least precise scores are not listed. The source holds two more conditions with little spread; they are left out. In variant names, del marks residues removed and ins residues inserted between the two positions. For some of these results: The concentration of ogerin is not given here.

B1: GPR68, Q15743 (parent)
chain: MGNITADNSSMSCTIDHTIHQTLAPVVYVTVLVVGFPANCLSLYFGYLQIKARNELGVYLCNLTVADLFYICSLPFWLQYVLQHDNWSHGDLSCQVCGILLYENIYISVGFLCCISVDRYLAVAHPFRFHQFRTLKAAVGVSVVIWAKELLTSIYFLMHEEVIEDENQHRVCFEHYPIQAWQRAINYYRFLVGFLFPICLLLASYQGILRAVRRSHGTQKSRKDQIQRLVLSTVVIFLACFLPYHVLLLVRSVWEASCDFAKGVFNAYHFSLLLTSFNCVADPVLYCFVSETTHRDLARLRGACLAFLTCSRTGRAREAYPLGAPEASGKSGAQGEEPELLTKLHPAFQTPNSPGSGGFPTGRLA

What was measured:
[1] = variants of: B1; experiment: cAMP reporter score (Enrich2 score, wild type = 0); higher = more signal; HEK293T, FACS bins
[2] = variants of: B1; experiment: surface expression score (Enrich2 score, wild type = 0); higher = more signal; HEK293T, FACS bins

| Variant | cAMP reporter score ([1]; pH 5.5) | cAMP reporter score ([1]; pH 6) | cAMP reporter score ([1]; pH 6, modulator: ogerin) | cAMP reporter score ([1]; pH 6.5, modulator: ogerin) | surface expression score [2] |
| --- | --- | --- | --- | --- | --- |
| C310F | -0.263 | 0.677 | -0.267 | 0.172 | 0.116 |
| C310G | 1.33 | 3.32 | 0.903 | 2.7 | 0.716 |
| C310H | 0.428 | 1.59 | 0.558 | 1.79 | 0.414 |
| C310I | -0.014 | – | 0.29 | – | -0.019 |
| C310K | 2.01 | 3.45 | 2.21 | 3.85 | 0.799 |
| C310L | 0.242 | 1.02 | 0.333 | 0.536 | -0.431 |
| C310M | -0.492 | – | -0.136 | 0.134 | -0.83 |
| C310N | 2.02 | – | 1.65 | 2.77 | 0.264 |
| C310P | 0.18 | – | – | 0.37 | -0.224 |
| C310Q | -0.118 | 0.881 | 0.263 | 0.707 | -0.974 |
| C310R | 0.978 | – | 1.7 | 2.72 | 1.67 |
| C310S | 1.68 | 2.6 | 2.05 | 2.97 | 1.14 |
| C310T | 0.635 | 1.42 | 1.18 | 1.56 | 0.263 |
| C310V | 0.282 | 1.01 | 0.704 | 1.67 | -0.741 |
| C310W | 0.924 | 1.01 | 1.01 | 0.468 | 0.151 |
| C310Y | 0.045 | 0.112 | -0.015 | 0.091 | -0.385 |

| Variant | cAMP reporter score ([1]; pH 5.5) | cAMP reporter score ([1]; pH 6) | cAMP reporter score ([1]; pH 6, modulator: ogerin) | cAMP reporter score ([1]; pH 6.5, modulator: ogerin) | surface expression score [2] |
| --- | --- | --- | --- | --- | --- |
| C310_S311del | 0.399 | – | 1.21 | 2.27 | 0.546 |
| C310_S311insGS | -0.64 | -0.554 | 0.318 | 0.415 | 0.716 |
| C310_S311insGSG | -0.117 | – | -0.016 | 0.394 | 0.284 |
| C310del | -0.176 | 1.56 | -0.002 | 0.957 | -0.475 |
| S311_R312del | -0.635 | -0.548 | 0.22 | -0.332 | -1.04 |
| S311_R312insGS | 0.65 | 0.513 | 1.16 | 1.22 | 0.646 |
| S311_R312insGSG | 0.826 | 2.07 | 1.22 | 2.41 | 0.992 |
| S311del | -0.023 | -1.22 | -0.156 | 1.24 | 0.149 |
| R312_T313del | 1.29 | 0.331 | 1.37 | 1.16 | 0.072 |
| R312_T313insGS | 0.718 | 0.304 | -0.153 | 1.18 | 0.786 |
| R312del | 0.13 | 1.05 | -0.263 | 0.115 | -0.7 |
| T313A | -0.158 | -0.371 | -0.232 | -0.849 | -0.6 |
| T313C | -0.573 | -0.74 | -0.008 | -0.39 | -0.35 |
| T313D | -0.067 | 0.321 | -0.783 | 0.21 | 0.267 |
| T313E | 0.316 | 0.653 | 0.19 | 0.63 | -0.139 |
| T313F | -0.582 | -1.14 | -0.249 | -0.452 | -0.05 |
